Variants at the background level are over-represented here.
B1: glmS ribozyme (parent)
chain: AUAAAAGCGCCAGAACUACAGAAAUGUAGUUGACGAGGAGGAGGUUUAUCGAAUUUUCGGCGGAUGCCUCCAAA

Experiments:
Conditions in all cases: with glucosamine-6-phosphate
glucosamine-6-phosphate [1] = variants of: B1; assay: self-cleavage kobs at 40 uM GlcN6P; higher = faster cleavage; RNA array
Summary of the method: (§1)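 Tiles bearing barcoded ribozyme variants, transcribed in situ by E. coli RNA polymerase on sequenced MiSeq chips, were imaged over ~14 h at 37 °C using a hybridised Cy3 probe. Glucosamine-6-phosphate was supplied at 40 μM to 10 mM in HEPES/KCl/Mg(OAc)2 buffer. kobs came from one- or two-exponential decay fits to normalised per-tile medians, and weighted Michaelis–Menten fits then provided kcat and KM.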

glucosamine-6-phosphate [2] = variants of: B1; assay: self-cleavage kobs at 640 uM GlcN6P; higher = faster cleavage; RNA array
Summary of the method: as §1

glucosamine-6-phosphate [3] = variants of: B1; assay: self-cleavage kobs at 10000 uM GlcN6P; higher = faster cleavage; RNA array
Summary of the method: as §1

glucosamine-6-phosphate [4] = variants of: B1; assay: self-cleavage kobs at 160 uM GlcN6P; higher = faster cleavage; RNA array
Summary of the method: as §1

glucosamine-6-phosphate [5] = variants of: B1; assay: self-cleavage kobs at 2500 uM GlcN6P; higher = faster cleavage; RNA array
Summary of the method: as §1

AUAAAAGCGCCAGAACUACAGAAAUGUAGUUGACGAGGAGGAGGUUUAUCGAAUUUUCGACGGAUGCCUCUAAA [G60A C71U]
self-cleavage kobs at 40 uM GlcN6P (glucosamine-6-phosphate [1]): < 1e-05 s⁻¹
self-cleavage kobs at 640 uM GlcN6P (glucosamine-6-phosphate [2]): < 1e-05 s⁻¹

AUAAAAGCGCCAGAACUACAGAAAUGUAGUUGACGAGGAGGAGGUUUAUCGAAUUUUCGCCGGUUGCCUCCAAA [G60C A64U]
self-cleavage kobs at 40 uM GlcN6P (glucosamine-6-phosphate [1]): < 1e-05 s⁻¹

AUAAAAGCGCCAGAACUACAGAAAUGUAGUUGACGAGGAGGAGGUUUAUCGAAUUUUCGGCUGAUUUCUCCAAA [G62U G66U C67U]
self-cleavage kobs at 40 uM GlcN6P (glucosamine-6-phosphate [1]): < 1e-05 s⁻¹
self-cleavage kobs at 10000 uM GlcN6P (glucosamine-6-phosphate [3]): < 1e-05 s⁻¹

AUAAAAGCGCCAGAACUACAGAAAUGUAGUUGACGAGGAGGAGGUUUAUCGAAUUUUCAGCGGAUACCUCCAAA [G59A G66A]
self-cleavage kobs at 40 uM GlcN6P (glucosamine-6-phosphate [1]): < 1e-05 s⁻¹
self-cleavage kobs at 160 uM GlcN6P (glucosamine-6-phosphate [4]): < 1e-05 s⁻¹

AUAAAAGCGCCAGAACUACAGAAAUGUAGUUGACGAGGAGGAGGUUUAUCGAAUUUUCGGCCGAUGCCUCUAAA [G62C C71U]
self-cleavage kobs at 40 uM GlcN6P (glucosamine-6-phosphate [1]): < 1e-05 s⁻¹
self-cleavage kobs at 640 uM GlcN6P (glucosamine-6-phosphate [2]): < 1e-05 s⁻¹
self-cleavage kobs at 160 uM GlcN6P (glucosamine-6-phosphate [4]): < 1e-05 s⁻¹
self-cleavage kobs at 2500 uM GlcN6P (glucosamine-6-phosphate [5]): < 1e-05 s⁻¹
self-cleavage kobs at 10000 uM GlcN6P (glucosamine-6-phosphate [3]): < 1e-05 s⁻¹

AUAAAAGCGCCAGAACUACAGAAAUGUAGUUGACGAGGAGGAGGUUUAUCGAAUUUUAGGCGGAGGCCUCCAAA [C58A U65G]
self-cleavage kobs at 40 uM GlcN6P (glucosamine-6-phosphate [1]): < 1e-05 s⁻¹

AUAAAAGCGCCAGAACUACAGAAAUGUAGUUGACGAGGAGGAGGUUUAUCGAAUUUUAUGCGGAUGCUUCCAAA [C58A G59U C68U]
self-cleavage kobs at 40 uM GlcN6P (glucosamine-6-phosphate [1]): < 1e-05 s⁻¹

AUAAAAGCGCCAGAACUACAGAAAUGUAGUUGACGAGGAGGAGGUUUAUCGAAUUUUCUGCGGAUGCAUCCAAA [G59U C68A]
self-cleavage kobs at 40 uM GlcN6P (glucosamine-6-phosphate [1]): < 1e-05 s⁻¹

AUAAAAGCGCCAGAACUACAGAAAUGUAGUUGACGAGGAGGAGGUUUAUCGAAUUUUCGCCGUAUGCCUCCAAA [G60C G63U]
self-cleavage kobs at 40 uM GlcN6P (glucosamine-6-phosphate [1]): < 1e-05 s⁻¹
self-cleavage kobs at 640 uM GlcN6P (glucosamine-6-phosphate [2]): < 1e-05 s⁻¹
self-cleavage kobs at 160 uM GlcN6P (glucosamine-6-phosphate [4]): < 1e-05 s⁻¹
self-cleavage kobs at 10000 uM GlcN6P (glucosamine-6-phosphate [3]): < 1e-05 s⁻¹

AUAAAAGCGCCAGAACUACAGAAAUGUAGUUGACGAGGAGGAGGUUUAUCGAAUUUUCGGGGGAUUCCUCCAAA [C61G G66U]
self-cleavage kobs at 40 uM GlcN6P (glucosamine-6-phosphate [1]): < 1e-05 s⁻¹
self-cleavage kobs at 160 uM GlcN6P (glucosamine-6-phosphate [4]): < 1e-05 s⁻¹
self-cleavage kobs at 10000 uM GlcN6P (glucosamine-6-phosphate [3]): < 1e-05 s⁻¹

AUAAAAGCGCCAGAACUACAGAAAUGUAGUUGACGAGGAGGAGGUUUAUCGAAUUUUCGGCCUAUGCCUCCAAA [G62C G63U]
self-cleavage kobs at 40 uM GlcN6P (glucosamine-6-phosphate [1]): < 1e-05 s⁻¹
self-cleavage kobs at 160 uM GlcN6P (glucosamine-6-phosphate [4]): < 1e-05 s⁻¹
self-cleavage kobs at 2500 uM GlcN6P (glucosamine-6-phosphate [5]): < 1e-05 s⁻¹

AUAAAAGCGCCAGAACUACAGAAAUGUAGUUGACGAGGAGGAGGUUUAUCGAAUUUUCGACGGAUUCCUCCAAA [G60A G66U]
self-cleavage kobs at 40 uM GlcN6P (glucosamine-6-phosphate [1]): < 1e-05 s⁻¹

AUAAAAGCGCCAGAACUACAGAAAUGUAGUUGACGAGGAGGAGGUUUAUCGAAUUUUUGGCGGAUGCCUUCAAA [C58U C70U]
self-cleavage kobs at 40 uM GlcN6P (glucosamine-6-phosphate [1]): < 1e-05 s⁻¹

AUAAAAGCGCCAGAACUACAGAAAUGUAGUUGACGAGGAGGAGGUUUAUCGAAUUUUCGGGGGAGGCCUCCAAA [C61G U65G]
self-cleavage kobs at 40 uM GlcN6P (glucosamine-6-phosphate [1]): < 1e-05 s⁻¹
self-cleavage kobs at 640 uM GlcN6P (glucosamine-6-phosphate [2]): < 1e-05 s⁻¹
self-cleavage kobs at 10000 uM GlcN6P (glucosamine-6-phosphate [3]): < 1e-05 s⁻¹

AUAAAAGCGCCAGAACUACAGAAAUGUAGUUGACGAGGAGGAGGUUUAUCGAAUUUUCGUCGGAUGUCUCCAAA [G60U C67U]
self-cleavage kobs at 40 uM GlcN6P (glucosamine-6-phosphate [1]): < 1e-05 s⁻¹
self-cleavage kobs at 640 uM GlcN6P (glucosamine-6-phosphate [2]): < 1e-05 s⁻¹
self-cleavage kobs at 160 uM GlcN6P (glucosamine-6-phosphate [4]): < 1e-05 s⁻¹
self-cleavage kobs at 10000 uM GlcN6P (glucosamine-6-phosphate [3]): < 1e-05 s⁻¹

AUAAAAGCGCCAGAACUACAGAAAUGUAGUUGACGAGGAGGAGGUUUAUCGAAUUUUCGGUGGGUGCCUGCAAA [C61U A64G C70G]
self-cleavage kobs at 40 uM GlcN6P (glucosamine-6-phosphate [1]): < 1e-05 s⁻¹

AUAAAAGCGCCAGAACUACAGAAAUGUAGUUGACGAGGAGGAGGUUUAUCGAAUUUUCGCCGGAUGCCUCUAAA [G60C C71U]
self-cleavage kobs at 40 uM GlcN6P (glucosamine-6-phosphate [1]): < 1e-05 s⁻¹
self-cleavage kobs at 640 uM GlcN6P (glucosamine-6-phosphate [2]): < 1e-05 s⁻¹
self-cleavage kobs at 160 uM GlcN6P (glucosamine-6-phosphate [4]): < 1e-05 s⁻¹

AUAAAAGCGCCAGAACUACAGAAAUGUAGUUGACGAGGAGGAGGUUUAUCGAAUUUUCGGCUGAUACCUCCAAA [G62U G66A]
self-cleavage kobs at 40 uM GlcN6P (glucosamine-6-phosphate [1]): < 1e-05 s⁻¹

AUAAAAGCGCCAGAACUACAGAAAUGUAGUUGACGAGGAGGAGGUUUAUCGAAUUUUCUGCGGAUACCUCCAAA [G59U G66A]
self-cleavage kobs at 40 uM GlcN6P (glucosamine-6-phosphate [1]): < 1e-05 s⁻¹
self-cleavage kobs at 160 uM GlcN6P (glucosamine-6-phosphate [4]): < 1e-05 s⁻¹

AUAAAAGCGCCAGAACUACAGAAAUGUAGUUGACGAGGAGGAGGUUUAUCGAAUUUUUGGCCGAUGCCUCCAAA [C58U G62C]
self-cleavage kobs at 40 uM GlcN6P (glucosamine-6-phosphate [1]): < 1e-05 s⁻¹
self-cleavage kobs at 640 uM GlcN6P (glucosamine-6-phosphate [2]): < 1e-05 s⁻¹
self-cleavage kobs at 160 uM GlcN6P (glucosamine-6-phosphate [4]): < 1e-05 s⁻¹
self-cleavage kobs at 2500 uM GlcN6P (glucosamine-6-phosphate [5]): < 1e-05 s⁻¹
self-cleavage kobs at 10000 uM GlcN6P (glucosamine-6-phosphate [3]): < 1e-05 s⁻¹

AUAAAAGCGCCAGAACUACAGAAAUGUAGUUGACGAGGAGGAGGUUUAUCGAAUUUUCGGUGGCCGCCUCUAAA [C61U A64C U65C C71U]
self-cleavage kobs at 40 uM GlcN6P (glucosamine-6-phosphate [1]): < 1e-05 s⁻¹
self-cleavage kobs at 2500 uM GlcN6P (glucosamine-6-phosphate [5]): < 1e-05 s⁻¹

AUAAAAGCGCCAGAACUACAGAAAUGUAGUUGACGAGGAGGAGGUUUAUCGAAUUUUCUGUGGAUGCCUCCAAA [G59U C61U]
self-cleavage kobs at 40 uM GlcN6P (glucosamine-6-phosphate [1]): < 1e-05 s⁻¹
self-cleavage kobs at 640 uM GlcN6P (glucosamine-6-phosphate [2]): < 1e-05 s⁻¹
self-cleavage kobs at 10000 uM GlcN6P (glucosamine-6-phosphate [3]): < 1e-05 s⁻¹

AUAAAAGCGCCAGAACUACAGAAAUGUAGUUGACGAGGAGGAGGUUUAUCGAAUUUUCGGCAGACGCCUCCAAA [G62A U65C]
self-cleavage kobs at 40 uM GlcN6P (glucosamine-6-phosphate [1]): < 1e-05 s⁻¹
self-cleavage kobs at 640 uM GlcN6P (glucosamine-6-phosphate [2]): < 1e-05 s⁻¹
self-cleavage kobs at 160 uM GlcN6P (glucosamine-6-phosphate [4]): < 1e-05 s⁻¹
self-cleavage kobs at 2500 uM GlcN6P (glucosamine-6-phosphate [5]): < 1e-05 s⁻¹
self-cleavage kobs at 10000 uM GlcN6P (glucosamine-6-phosphate [3]): < 1e-05 s⁻¹

AUAAAAGCGCCAGAACUACAGAAAUGUAGUUGACGAGGAGGAGGUUUAUCGAAUUUUCGGCGCAUGACUCCAAA [G63C C67A]
self-cleavage kobs at 40 uM GlcN6P (glucosamine-6-phosphate [1]): < 1e-05 s⁻¹
self-cleavage kobs at 640 uM GlcN6P (glucosamine-6-phosphate [2]): < 1e-05 s⁻¹
self-cleavage kobs at 10000 uM GlcN6P (glucosamine-6-phosphate [3]): < 1e-05 s⁻¹

AUAAAAGCGCCAGAACUACAGAAAUGUAGUUGACGAGGAGGAGGUUUAUCGAAUUUUCGGUGGAUGCCUUCAAA [C61U C70U]
self-cleavage kobs at 40 uM GlcN6P (glucosamine-6-phosphate [1]): < 1e-05 s⁻¹

AUAAAAGCGCCAGAACUACAGAAAUGUAGUUGACGAGGAGGAGGUUUAUCGAAUUUUUCGCGGAAGCCUUCAAA [C58U G59C U65A C70U]
self-cleavage kobs at 40 uM GlcN6P (glucosamine-6-phosphate [1]): < 1e-05 s⁻¹

AUAAAAGCGCCAGAACUACAGAAAUGUAGUUGACGAGGAGGAGGUUUAUCGAAUUUUCGGCUGGUGCCUCCAAA [G62U A64G]
self-cleavage kobs at 40 uM GlcN6P (glucosamine-6-phosphate [1]): < 1e-05 s⁻¹
self-cleavage kobs at 640 uM GlcN6P (glucosamine-6-phosphate [2]): < 1e-05 s⁻¹
self-cleavage kobs at 160 uM GlcN6P (glucosamine-6-phosphate [4]): < 1e-05 s⁻¹

AUAAAAGCGCCAGAACUACAGAAAUGUAGUUGACGAGGAGGAGGUUUAUCGAAUUUUCGGCAGAUGCCUUCAAA [G62A C70U]
self-cleavage kobs at 40 uM GlcN6P (glucosamine-6-phosphate [1]): < 1e-05 s⁻¹
self-cleavage kobs at 10000 uM GlcN6P (glucosamine-6-phosphate [3]): < 1e-05 s⁻¹

AUAAAAGCGCCAGAACUACAGAAAUGUAGUUGACGAGGAGGAGGUUUAUCGAAUUUUCGUCGGAUGCCGCCAAA [G60U U69G]
self-cleavage kobs at 40 uM GlcN6P (glucosamine-6-phosphate [1]): < 1e-05 s⁻¹
self-cleavage kobs at 640 uM GlcN6P (glucosamine-6-phosphate [2]): < 1e-05 s⁻¹
self-cleavage kobs at 10000 uM GlcN6P (glucosamine-6-phosphate [3]): < 1e-05 s⁻¹

AUAAAAGCGCCAGAACUACAGAAAUGUAGUUGACGAGGAGGAGGUUUAUCGAAUUUUCGCCGGAUGCGUCCAAA [G60C C68G]
self-cleavage kobs at 40 uM GlcN6P (glucosamine-6-phosphate [1]): < 1e-05 s⁻¹
self-cleavage kobs at 10000 uM GlcN6P (glucosamine-6-phosphate [3]): < 1e-05 s⁻¹

AUAAAAGCGCCAGAACUACAGAAAUGUAGUUGACGAGGAGGAGGUUUAUCGAAUUUUCGCCGGAGGCCUCCAAA [G60C U65G]
self-cleavage kobs at 40 uM GlcN6P (glucosamine-6-phosphate [1]): < 1e-05 s⁻¹
self-cleavage kobs at 640 uM GlcN6P (glucosamine-6-phosphate [2]): < 1e-05 s⁻¹
self-cleavage kobs at 160 uM GlcN6P (glucosamine-6-phosphate [4]): < 1e-05 s⁻¹

— the supplement of paper PMC7125110
